PubChem BioAssay AID720707 (National Center for Advancing Translational Sciences (NCATS), 2013)
Among all 360,000 compounds or so, about 270 (0.075%) were called active. The shares of active, inactive and inconclusive entries below differ from those in the screen. The call rests on the fitted dose curve; in most records, active means well fitted activation curve with a large enough effect; inconclusive means small, poorly fitted or top-dose-only effect; inactive means no such curve, though single readings can be large or run the other way. Potencies of inconclusive entries are left out as doubtful fits.

What follows are compounds tested against Rap guanine nucleotide exchange factor 3 (Homo sapiens) (UniProt O95398) (assay: qHTS for Agonist of cAMP-regulated guanine nucleotide exchange factor 3 (EPAC1): primary screen). Details: biochemical assay; activation: at 154 µM (top of the series), 100% = response to 6.5 mM cAMP.
Excerpt: In multi-cellular eukaryotic organisms, the effects of cAMP are transduced by two ubiquitously-expressed intracellular cAMP receptors, the classic protein kinase A/cAMP-dependent protein kinase (PKA/cAPK) and the more recently discovered exchange protein directly activated by cAMP/cAMP-regulated guanine nucleotide exchange factor (EPAC/cAMP-GEF). Both PKA and EPAC are ubiquitously expressed in all tissues, and an increase in intracellular cAMP levels will lead to the activation of both PKA and EPAC. Therefore, careful dissections of the individual role and relative contribution of EPAC and PKA within the overall cAMP signaling in various model systems are critical for further elucidating the mechanism of cAMP signaling. To date no EPAC-specific antagonists and agonist, as well as isoform-specific agonists have been reported, and developing EPAC-specific pharmacological probes to determine the physiological functions that EPAC play in the overall cAMP-mediated signaling remains a major challenge within the research field. Furthermore, identified regulators of EPAC may lead to new mechanism-based therapeutic strategies specifically targeting the EPAC / cAMP-signaling components as EPAC has been implicated to play important roles in major human pathological conditions such as diabetes, heart disease, and cancer.
This qHTS will be used to screen the Molecular Libraries Small Molecule Repository (MLSMR) as a concentration-titration series using the NCGC unique quantitative screening (qHTS) platform to find activators for EPAC1. In addition, this assay will also be used as a counterscreen for the EPAC2 qHTS. This fluorescent based assay is developed and validated for EPAC1 that measures exchange using EPAC effector Rap1 complex with BODIPY-GDP, a GDP analog with a tethered fluorophores. Activators are identified by monitoring the change in fluorescence signal as the exchanged free BODIPY-GDP has a reduced fluorescence compared to Rap1-bound BODIPY-GDP. Increase in signal (activation) is the desired outcome for the EPAC1 agonist while no activity in this assay is desired for the EPAC2 agonist counterscreen.
[1] de Rooij, J., Zwartkruis, F. J., Verheijen, M. H., Cool, R. H., Nijman, S. M., Wittinghofer, A., and Bos, J.L. (1998) Nature 396, 474-477
NIH Chemical Genomics Center [NCGC]
NIH Molecular Libraries Probe Centers Network [MLPCN]
Assay Submitter (PI): Xiaodong Cheng, The University of Texas Medical Branch
Briefly, three uL of reagents (100 nM EPAC1, 250 nM RAP1B-BODIPY-GDP, 50 uM GDP) were dispensed into a 1536-well Greiner black solid-bottom medium binding assay plate. Controls and test compounds (23 nL) were transferred to the plate via a Kalypsys pin tool equipped with a 1536-pin array. The plates were centrifuged at 1,000 rpm for 15 seconds followed by 5 minute incubation at room temperature. The assay plates were read at 5 minute intervals for 30 minutes in the ViewLux plate reader using 480nm excitation and 540nm emission filters. The results were normalized to the agonist positive control of 6.5 mM cAMP.
Further: nearly all actives have a fitted effect of over 60% in size.
Potency means the concentration at half of the fitted maximal effect; tags describe the fitted curve by direction and shape.

Chain of UniProt O95398 (O95398 whole entry, looked up): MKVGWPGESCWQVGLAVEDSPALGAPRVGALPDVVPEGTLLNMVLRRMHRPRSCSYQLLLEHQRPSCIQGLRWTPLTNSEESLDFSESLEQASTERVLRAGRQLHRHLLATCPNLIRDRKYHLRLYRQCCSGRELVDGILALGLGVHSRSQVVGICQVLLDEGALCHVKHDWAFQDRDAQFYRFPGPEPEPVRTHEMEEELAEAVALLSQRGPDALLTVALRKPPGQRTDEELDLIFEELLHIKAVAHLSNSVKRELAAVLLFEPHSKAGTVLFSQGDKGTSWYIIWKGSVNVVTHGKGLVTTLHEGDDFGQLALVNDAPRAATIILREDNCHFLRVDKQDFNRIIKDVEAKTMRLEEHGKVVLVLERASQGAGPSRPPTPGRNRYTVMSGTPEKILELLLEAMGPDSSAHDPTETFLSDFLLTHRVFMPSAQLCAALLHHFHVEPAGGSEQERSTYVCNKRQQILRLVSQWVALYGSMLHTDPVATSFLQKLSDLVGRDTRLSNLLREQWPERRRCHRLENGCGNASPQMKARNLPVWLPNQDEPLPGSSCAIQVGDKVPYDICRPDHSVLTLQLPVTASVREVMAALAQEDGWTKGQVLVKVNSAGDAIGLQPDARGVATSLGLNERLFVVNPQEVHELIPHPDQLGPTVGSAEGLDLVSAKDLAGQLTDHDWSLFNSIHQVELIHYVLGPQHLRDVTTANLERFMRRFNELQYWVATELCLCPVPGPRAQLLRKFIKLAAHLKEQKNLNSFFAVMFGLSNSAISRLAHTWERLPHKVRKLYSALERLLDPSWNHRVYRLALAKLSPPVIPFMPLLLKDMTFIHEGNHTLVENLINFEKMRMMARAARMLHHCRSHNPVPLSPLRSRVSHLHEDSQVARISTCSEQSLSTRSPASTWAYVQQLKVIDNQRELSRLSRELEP

Row | SMILES | Potency | activation
1 | C#CCN(C(=O)c1cc(COc2ccc(C)c(C)c2)on1)C1CCCCC1 | inconclusive [activator, single point] | 
2 | O/C=c1\ccc2cccc3nc(C(F)(F)F)nc1c23 | active: 89.1 µM | 
3 | COc1ccc(C(=O)NC2CC2)cc1OC1CCN(Cc2ccc(F)cc2Cl)CC1 |  | inactive: -1.33%
4 | COc1cc2c(cc1OC)CN(C(=O)CCCOc1ccc(Cl)cc1Cl)CC2 | inconclusive [activator, partial curve] | 
5 | CN(C)c1ccc(/C=C(\C#N)c2ccccn2)cc1 | inconclusive [activator, single point] | 
6 | CCCN1CCc2c(sc(NC(=O)c3ccc(S(=O)(=O)N4CCN(C(=O)OCC)CC4)cc3)c2C(N)=O)C1 | inconclusive [activator, single point] | 
7 | CCN(Cc1ccccc1)c1ccc(/C=C(\C#N)c2ccccn2)cc1 | inconclusive [activator, partial curve] | 
8 | CCN(CC)S(=O)(=O)c1ccc(C(=O)OCCN2C(=O)c3cccc4c(N5CCOCC5)ccc(c34)C2=O)cc1 | inconclusive [activator, single point] | 
9 | O=C(OCCN1C(=O)c2cccc3c(N4CCOCC4)ccc(c23)C1=O)c1ccc(Cl)cc1Cl | inconclusive [activator, partial curve] | 
10 | O=C1c2cccnc2C(Nc2ccc(S(=O)(=O)N3CCCCCC3)cc2)N1Cc1ccccc1 (stereo not drawn) |  | inactive: 9.65%
11 | CCn1nc(C(=O)NNC(=O)c2cc(Cl)ccc2OC)c2ccccc2c1=O | inconclusive [activator, partial curve] | 
12 | CCOC(=O)/C(=C/C=C1\Sc2cc(OCC)c(OCC)cc2N1CC)C(C)=O | inconclusive [activator, partial curve, poor fit] | 
13 | Cc1ccc(NC(=S)NCc2cccs2)c(C)c1 | inconclusive [activator, partial curve] | 
14 | O=C(C(=O)N1CCN(C(=O)c2ccco2)CC1)c1ccccc1 |  | inactive: -2.96%
15 | Nc1ccc(C(=O)N2CCN(S(=O)(=O)c3ccc(Cl)s3)CC2)cc1[N+](=O)[O-] | inconclusive [activator, full curve] | 
16 | CC(=O)Nc1ccc(-c2ccnc3c2CC(C)(C(=O)NCc2ccc(N4CCN(C)CC4)cc2)O3)cc1 (stereo not drawn) |  | inactive: 2.17%
17 | CCOC(=O)c1c(NC(=O)CSc2nnnn2-c2ccccc2OCC)sc2c1CC(C)(C)NC2(C)C | inconclusive [activator, partial curve] | 

Row | SMILES | Potency | activation
18 | O=C(Cc1cccc(NC(=O)C2CCCN(C(=O)CCc3ccccc3)C2)c1)Nc1ccc(C(=O)N2CCOCC2)cc1 (stereo not drawn) |  | inactive: -14.7%
19 | O=C(Nc1ccc(Cl)c(Cl)c1)C1CCN(C(=O)c2ccco2)CC1 | inconclusive [activator, single point] | 
20 | S=C(NCc1ccco1)N1CCN(C(c2ccccc2)c2ccccc2)CC1 | inconclusive [activator, partial curve] | 
21 | CCOC(=O)C1=NNC2(CC(=O)N(c3cc(C)cc(C)c3)C2=O)C1 (stereo not drawn) | inconclusive [activator, partial curve] | 
22 | COc1ccc(N=Nc2nc3cc(Br)c(Br)cc3n2C)c(OC)c1 | active: 112 µM | 
23 | CN(Cc1ccco1)C(=O)CSc1nc(C2CC2)n(-c2ccccc2)n1 | inconclusive [activator, full curve, poor fit] | 
24 | CCCCCN(C(=O)CCC(=O)OCC(=O)N1CCC(C)CC1)c1c(N)n(CCCC)c(=O)[nH]c1=O | inconclusive [activator, partial curve] | 
25 | Cc1cccc(NC(=O)CSCC(=O)N(C)CCOc2ccc(Cl)cc2)c1 | active: 50.1 µM | 
26 | CC(C)(C)c1ccc(C(=O)CC(Sc2ccc(Cl)cc2)C(=O)O)cc1 (stereo not drawn) |  | inactive: -1.29%
27 | CCN(CC)S(=O)(=O)c1cc(NC(=O)c2cccc(N3C(=O)CCC3=O)c2)ccc1Cl | inconclusive [activator, single point] | 
28 | COc1ccc(NC(=S)NC(NC(=O)CCl)C(Cl)(Cl)Cl)c([N+](=O)[O-])c1 (stereo not drawn) |  | inactive: 6.24%
29 | O=C(NNC(=O)C12CC3CC(CC(C3)C1)C2)c1csc(N2CCOCC2)n1 | inconclusive [activator, full curve, poor fit] | 
30 | Cc1ccc(S(=O)(=O)N2CCN(C(=O)COC(=O)c3c(C)cc(C)cc3C)CC2)c(C)c1 | inconclusive [activator, partial curve] | 
31 | COc1ccc(C(=O)COC(=O)CCN2C(=O)C3CC=CCC3C2=O)c(OC)c1 (stereo not drawn) | inconclusive [activator, single point] | 
32 | CCOC(=O)c1ccc(NC(=O)c2nn(CC)cc2Br)cc1 |  | inactive: 16.8%
33 | O=C(CCn1c(=O)oc2ccccc21)Nc1cccc(Br)c1 | inconclusive [activator, single point] | 
